These results are taken from the RNAGym collection of RNA variant scans (doi:10.1093/nar/gkz1192).

The source gives no read counts; variants with many changes may rest on few reads.

To fix the notation:
B1: CPEB3 Ribozyme (parent)
chain: UAACAGGGGGCCACAGCAGAAGCGUUCACGUCGCAGCCCCUGUCAGAUUCUGGUGAAUCUGCGAAUUCUGCUGUAUAUCUC

In the series the parent is B1. Description: self-cleavage, relative activity (ratio to wild type); higher = more cleavage; in vitro, sequencing. The essentials: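 After error-prone PCR and barcoding, CPEB3 ribozyme mutant libraries were transcribed with T7 RNA polymerase at 37°C for 5 hours, then given 15 min with DNase I before an EDTA stop, and they cleaved during both steps. Reverse transcription with template switching preceded Illumina sequencing. Relative activity divides a variant's cleaved/total read fraction by the unmutated ribozyme's. At least 5 reads were required per variant, and three batches were averaged.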
On to UAACAAGGGCCCGCAGCAGAAGCGUUCACGUCGCAGCCCCUGUCAGAUUCUGGCGAAUCUGCGAAUUCCGCGGUAUAUCUC [G6A G10C A13G U54C U69C U72G], for which the self-cleavage was 0.06.

For the variant UAACAAGGGGCUACAGCAGAAGCCUUCACGUCGCAGCCCCUGUCUGAUUCUGGUGAAUCUGCGAAUUCUGCUGUAUAUCUC [G6A C12U G24C A45U], the self-cleavage was 0.06. For the variant UAACAAGGGGCCACAGCAGUAGCGUUCACGACGCAGCCCCUGUCAGAUUCUGGUGAAUCUGCGAAUCCUGCUGUAUAUCUC [G6A A20U U31A U67C], the self-cleavage stood at 0.14.

As for UAACAAGGGGCCACAGCAGAAGGGUUCACGUCGCAGCCCCUGUCAGAUUCUCGUGAAUCUGCGAAUUCCGCUGUAUACCUC [G6A C23G G52C U69C U78C], the self-cleavage came to 0.16.

Regarding UAACAAGGGGCCACAGCAGAAGCGUUCACGUCGCAGCCCCUGUCAGAUUCUGGUGAGUCUGCGAAUUCUGCUGAAUAUCUC [G6A A57G U74A], the self-cleavage is 0.57. In the case of UAACAAGGGGCUACAGCAGAAGCGUUCACGUCGCAGCCCCUGUCAGAAUCUGGUGGAUCUGAGAAUUCUGCUGUAUAUCUC [G6A C12U U48A A56G C62A], the self-cleavage turned out to be 0.22.

For UAACAAGGGGCCACAGCUGAAGCGUUCACGUCGCGACCCCUGUCAGAUUCUGGUGAAUCUGCGAAUUCUGCCGUAUAUCUC [G6A A18U A35G G36A U72C], the self-cleavage came out at 0.07.

As to UAACAAGGGGCCACAGCAGGAGCCUUCACGUCGCAGCCCCUGUCAGAUUCUGGUGAAUCUGCGAAUUCAGCUGUAUAUCUC [G6A A20G G24C U69A], the self-cleavage is 0.06. Next, UAACAAGGGGCCACAGCAGGAGCAUACACGUCGCAGCCCCUGUCAGAUUCUGGUGAGUCUGCGAAUUCCGCUGUAUAUCUC [G6A A20G G24A U26A A57G U69C]: 0.18. With UAACAAGGGGCCACAGCAGAAGCGUUCACGUCGCGGCCCCCGUCAGAUUCUGGUGAAUCUGCGAAUUCUGCUGUAUAUCUC [G6A A35G U41C], the self-cleavage is 0.55. UAACAAGGGGCCACUGCAGAAGCGUUCACGUCGCGGCCCCUGUCAGAUUCUGGUGAAUCUGCGAAUACUGCUGUAUAUCUC [G6A A15U A35G U67A]: the self-cleavage amounted to 0.18. Next, UAACAAGGGGCCACAGCAGAAGCGUUCUCGUCGCAGCCCCUGUCAGAUUCUGGCGAAUCUGCGAAUUCUGCUGUAUGUCUC [G6A A28U U54C A77G]: 0.16; UAACAAGGGGCCACAGCGGAAGCGUUCACGUCGCAGCCCCUGUCAGUUUCUGGUGAAUCUGCGAAUUCUGCUGUAUAUCUC [G6A A18G A47U]: 0.29; UAACAAGGCGCCACAGCAGAAGCGUUCUCGUCGCAGCCCCUGUCAGAUUCUGGGGAAUCUGCGAAUUCAGCUGUAUAUCUC [G6A G9C A28U U54G U69A]: 0.06. For UAACAAGGGGCCACUGCAGAAGCGCUCACGUCGCAGCCCCUGUCAGGUUCUGGUGAAUCUGCGGAUCCUGCUGUAUAACUC [G6A A15U U25C A47G A64G U67C U78A] the value was 0.03; for UAACAAGGGGCCACAGCAGAGGCGUCCACGUCGCAGCCCCUGUCAGAUUCUGGUGAAUCUGCGAAUUCUGCCGUAUAUCUC [G6A A21G U26C U72C], 0.34; for UAACAAGGGGCCACAGCAGAGGCGUUCACGUCGCAGCCCCUGUCAGAUUCUAGCGAAUCUGCGGAUUCUGCUGUAUAUCUC [G6A A21G G52A U54C A64G], 0.09. For UAACAAGGGGCCACAGCGGAAGCGUUCACGUCGCAGCCCCUGUCAGAUACUGGUGAAUCUGCGAAUUCUGCUGUAUAUCUC [G6A A18G U49A] the value was 0.35; for UAACAAGGGGCCACAGCAGAAGCGUUCACGUUGCAGCCCCUGACAGCUUCUGGUGAAUCUGCGAAUUCUGCUGUAUAUCUC [G6A C32U U43A A47C], 0.05; for UAACAAGGGGCCACAGCGGAAGCGUUCACGUCGCAGCCCCUGUCAGAUUCAGGUGAAUCUGCGAAUCCUGCUGUAUAUCCC [G6A A18G U51A U67C U80C], 0.21. Consider UAACAAGGGGCCACAGCGGAAGCGUUCGCGUCGCAGCCCCCGUCAGAUUCUGGUGAAUCUGCGAAUUCUGCUGUAAAUCUC [G6A A18G A28G U41C U76A], for which the self-cleavage was determined as 0.04. For UAACAAGGGGCCACAGCAGGAGCGUUCACGUCGCAGCCCCUGUCAGAUUCUGGUGGAUCUGCGAGUUCUGCUGUAUAUCUC [G6A A20G A56G A65G] the value was 0.15; for UAACAAGGGGCCAUAGCAGAAGCGUUCGCGUCGCAGCCCCUGUCAGAUUCUGGUGAAUCUGCGUAUUCUGCUAUAUAUCUC [G6A C14U A28G A64U G73A], 0.07. For the variant UAACAAGGGGCCAGAGCAGGAGCGUUCACGUCGCAGCCCCUGUCAGAUUCUGGUGAAUCUGCGAAUUCUGCAGUACAUCUC [G6A C14G A20G U72A U76C], the self-cleavage stood at 0.15. Take UAACAAGGGGCCACAGCAGAAGCGUUCACGUCGCAGCCCCUGUCAGAUUCUGGUGAGUCUGCGAACCCUGCUGUAUAUCUC [G6A A57G U66C U67C]: the self-cleavage worked out at 0.2.

As for UAACAAGGGGCCACAGCAGAAGCGUUCACGUCGCAGCCCCUGUCGGAUUCUAGUGAAUCAGCUAAUUCUGCUGUGUAUCUC [G6A A45G G52A U60A G63U A75G], the self-cleavage turned out to be 0.17.

Turning to UAACAAGGAGCCACAGCAGAGGCGCUCACGUCGCAGCCCCUGUCAGAUUCUGGUGUAUCCGCGAAUUCUGCUGUAUAUUUC [G6A G9A A21G U25C A56U U60C C79U], the self-cleavage stood at 0.05.

On to UAACAAGAGGCCACGGCAGAAGCGUUCACGUCGCAGCCCCUGUCAGAUUCUGGGGAAUCAGCGAAUUCUGCUGUAUAUCCC [G6A G8A A15G U54G U60A U80C], for which the self-cleavage came out at 0.06. UAACAAGGGGCCACAGCAGAGGCGCUCACGUAGCAGCCCCUGUCAGAUUCUGGUGAAUCAGCGAAUUCUGCUGCAUAUCAC [G6A A21G U25C C32A U60A U74C U80A]: the self-cleavage came out at 0.05.

Regarding UAACAAGGGGCCACAGCAGAAGCGUUCACGUCGCUGCCCCUGUCAGAUUCUGGAGAAUCUGCGAAUUCUGCUGUAUAUCUC [G6A A35U U54A], the self-cleavage came to 0.44. As to UAACAAGGGGCCACAGCAGAAGCGUUCACGUCGCUGCCCCUGUCGGAUUCUGGUGAAUCCGCGAAUUCCGCUGUAUAUCUC [G6A A35U A45G U60C U69C], the self-cleavage came out at 0.17.

For UAACAAGGGGCCACAGCAGAUGCGUUCACGUCACAGCCCCUGUCAGAUUCUGGUGAAUCUGUGAAUCCUGCUGUAUAUCUC [G6A A21U G33A C62U U67C], the self-cleavage turned out to be 0.14.

As for UAACAAGGGGCCACAGCUGGAGCGUCCAUGUCGCAGCCCCUGUCAGAUUCUGGUGGAUCUGCGAAUUCUGCUGUAUAUCUC [G6A A18U A20G U26C C29U A56G], the self-cleavage was 0.08.

In the case of UAACAAGGGGCCACAGCAGAAGCGUUCACGUCGUAGCCCCUGUCAGAUUCUGGUGAAUCUGCGAAUUCUGCUGUAUUUCUC [G6A C34U A77U], the self-cleavage was 0.31.
